Measured values reported in the supplement of paper PMC12217912.
The list shows a part of the results. Sequences were assembled here from the parent chain. Inactive controls read about 0.05.

B1: TEV protease; numbered along this chain (parent)
chain: MGESLFKGPRDYNPISSSICHLTNESDGHTTSLYGIGFGPFIITNKHLFRRNNGTLVVQSLHGVFKVKDTTTLQQHLVDGRDMIIIRMPKDFPPFPQKLKFREPQREERICLVTTNFQTKSMSSMVSDTSCTFPSGDGIFWKHWIQTKDGQCGSPLVSTRDGFIVGIHSASNFTNTNNYFTSVPKNFMELLTNQEAQQWVSGWRLNADSVLWGGHKVFMVKPEEPFQPVKEATQL

Variants of: B1
Experiment: raw area under fraction-flipped curve 0-4 h after induction (AUC4h, not background-subtracted), DNA-recorder readout of cleavage of the substrate (dimensionless); higher = more cleavage of the substrate by the protease variant
Settings: temperature: 34 °C; time window: 0-4 h after rhamnose induction
Description: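 In vivo DNA recorder in E. coli TOP10(DE3) ΔrhaA at 34 °C. Each TEVp single-site mutant (parent TEVp 0) is paired with a single-site variant of the 7-mer TEVs (canonical ENLYFQ|S). The substrate sits between flexible linkers in a Bxb1-sfGFP-TEVs-SsrA fusion, so cleavage stabilises Bxb1 and speeds flipping of a recombination array, read by NGS. The value is the raw area under the fraction-flipped curve over 0-4 h after rhamnose induction (AUC4h), with ≥20 reads per time point. It is not background-subtracted; inactive controls average about 0.047.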
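Further: Bxb1 expression induced with 0.2% (w/v) L-rhamnose at OD600 near 0.5, cultures sampled hourly, flipped fraction per protease–substrate barcode pair counted by paired-end Illumina sequencing.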

Variant | area with substrate ENLYFAS | area with substrate ENLYFCS | area with substrate ENLYFDS | area with substrate ENLYFES | area with substrate ENLYFFS | area with substrate ENLYFGS | area with substrate ENLYFHS | area with substrate ENLYFIS | area with substrate ENLYFKS | area with substrate ENLYFLS | area with substrate ENLYFMS | area with substrate ENLYFNS | area with substrate ENLYFPS | area with substrate ENLYFRS | area with substrate ENLYFSS | area with substrate ENLYFVS | area with substrate ENLYFWS | area with substrate ENLYFYS | area with substrate ENLYFTS
MGESLFKGPRDYNPISSSICHLTNESDGHTTSLYGIGFGPFIITNKHLFRRNNGTLVVQSLHGVFKVKDTTTLQQHLVDGRDMIIIRMPKDFPPFPQKLKFREPQREERICLVTTNFQTKSMSSMVSDTSCTFPSGDGIFWKHWIQTKDGQCGSPNVSTRDGFIVGIHSASNFTNTNNYFTSVPKNFMELLTNQEAQQWVSGWRLNADSVLWGGHKVFMVKPEEPFQPVKEATQL [L156N] | 0.0656 | 0.0498 | 0.0599 | 0.0435 | 0.0607 | 0.0551 | 0.0501 | 0.0403 | 0.0566 | 0.0593 | 0.0507 | 0.0447 | 0.0514 | 0.0639 | 0.0476 | 0.0546 | 0.0422 | 0.0528 | –
MGESLFKGPRDYNPISSSICHLTNESDGHTTCLYGIGFGPFIITNKHLFRRNNGTLVVQSLHGVFKVKDTTTLQQHLVDGRDMIIIRMPKDFPPFPQKLKFREPQREERICLVTTNFQTKSMSSMVSDTSCTFPSGDGIFWKHWIQTKDGQCGSPLVSTRDGFIVGIHSASNFTNTNNYFTSVPKNFMELLTNQEAQQWVSGWRLNADSVLWGGHKVFMVKPEEPFQPVKEATQL [S32C] | 0.0611 | 0.051 | 0.0648 | 0.0625 | 0.0591 | 0.0687 | 0.0518 | 0.054 | 0.0697 | 0.0532 | 0.0729 | 0.0595 | 0.0788 | 0.0563 | 0.0654 | – | 0.0575 | – | 0.0588
MGESLFKGPRDYNPISSSICHLTNESDGHTTSLYGIGFGPFIITNKHLFRRNNGTLVVQSLHGVFKVKDTTTLQQHLVDGRDMIIIRMPKDFPPFPQKLKFREPQREERICTVTTNFQTKSMSSMVSDTSCTFPSGDGIFWKHWIQTKDGQCGSPLVSTRDGFIVGIHSASNFTNTNNYFTSVPKNFMELLTNQEAQQWVSGWRLNADSVLWGGHKVFMVKPEEPFQPVKEATQL [L112T] | 0.0611 | 0.0586 | – | 0.0651 | 0.067 | – | 0.0605 | 0.0648 | 0.0713 | 0.0597 | 0.0389 | 0.07 | 0.0723 | 0.0657 | 0.0583 | 0.0906 | 0.0692 | 0.0624 | 0.0571
MGESLFKGPRDYNPISSSICHLTNESDGHTTSLYGIGFGPFIITNKHLFRRNNGTLVVQSLHGVFKVKDTTTLQQHLVDGRDMIIIRNPKDFPPFPQKLKFREPQREERICLVTTNFQTKSMSSMVSDTSCTFPSGDGIFWKHWIQTKDGQCGSPLVSTRDGFIVGIHSASNFTNTNNYFTSVPKNFMELLTNQEAQQWVSGWRLNADSVLWGGHKVFMVKPEEPFQPVKEATQL [M88N] | 0.0231 | – | – | 0.0589 | 0.0612 | 0.0393 | 0.0628 | 0.053 | – | 0.0519 | – | 0.0572 | 0.0536 | 0.0219 | 0.0452 | 0.0523 | 0.0435 | 0.0533 | 0.0483
MGESLFKWPRDYNPISSSICHLTNESDGHTTSLYGIGFGPFIITNKHLFRRNNGTLVVQSLHGVFKVKDTTTLQQHLVDGRDMIIIRMPKDFPPFPQKLKFREPQREERICLVTTNFQTKSMSSMVSDTSCTFPSGDGIFWKHWIQTKDGQCGSPLVSTRDGFIVGIHSASNFTNTNNYFTSVPKNFMELLTNQEAQQWVSGWRLNADSVLWGGHKVFMVKPEEPFQPVKEATQL [G8W] | 0.0628 | 0.0714 | – | – | 0.0644 | – | – | 0.0593 | 0.0749 | – | – | – | 0.0457 | 0.0636 | – | 0.0718 | – | – | 0.0703
MGESLFKGPRDYNPISSSICHLTNESDGHTTSLYGIGFGPFIITNKHLFRRNNGTLVVQSLHGVFKVKDTTTLQQHLVDGRDMIIIRMPKDFPPFPQKLKFREPQREERICLVTTNFQTKSMSSMVSDTSCTFPSGDGIFWKHWIQTKDGQCGSPLVSTRDGFIVGIHSASNFTNTNNYFTSVPKNFMELLTNQEAQQWVSGWRLNMDSVLWGGHKVFMVKPEEPFQPVKEATQL [A207M] | 0.0775 | – | 0.0552 | 0.0756 | 0.0732 | – | – | – | – | – | 0.0648 | 0.0562 | 0.0618 | 0.0701 | – | – | – | – | –
MGESLFKGPRDYNPISSSICHLTNESDGHTTSLYGIGFGPFIITNKHLFRRNNGTGVVQSLHGVFKVKDTTTLQQHLVDGRDMIIIRMPKDFPPFPQKLKFREPQREERICLVTTNFQTKSMSSMVSDTSCTFPSGDGIFWKHWIQTKDGQCGSPLVSTRDGFIVGIHSASNFTNTNNYFTSVPKNFMELLTNQEAQQWVSGWRLNADSVLWGGHKVFMVKPEEPFQPVKEATQL [L56G] | 0.031 | 0.0435 | 0.0567 | 0.0562 | 0.0541 | – | 0.0431 | 0.0415 | 0.0433 | – | 0.0344 | 0.052 | 0.0553 | – | 0.0454 | 0.0468 | – | 0.0575 | 0.0192
MGESLFKGPRDYNPISSSICHLTNESDGHTTSLYGIGFGPFIITNKHLFRRNNGTLVVQSLHGVFKVKDTTTLQQHLVDGRDMIIIRMPKDFPPFPQKLKFREPQREERICLVTTNFQTKSMSSMVSDTSCTFPSGDGIFWYHWIQTKDGQCGSPLVSTRDGFIVGIHSASNFTNTNNYFTSVPKNFMELLTNQEAQQWVSGWRLNADSVLWGGHKVFMVKPEEPFQPVKEATQL [K142Y] | 0.0447 | – | – | 0.0738 | 0.0631 | – | – | 0.0455 | – | – | 0.0566 | 0.0638 | 0.0569 | 0.0452 | – | 0.0605 | – | – | –
MGESLFKGPRDINPISSSICHLTNESDGHTTSLYGIGFGPFIITNKHLFRRNNGTLVVQSLHGVFKVKDTTTLQQHLVDGRDMIIIRMPKDFPPFPQKLKFREPQREERICLVTTNFQTKSMSSMVSDTSCTFPSGDGIFWKHWIQTKDGQCGSPLVSTRDGFIVGIHSASNFTNTNNYFTSVPKNFMELLTNQEAQQWVSGWRLNADSVLWGGHKVFMVKPEEPFQPVKEATQL [Y12I] | 0.0625 | – | 0.0455 | 0.0625 | 0.0594 | 0.063 | 0.0529 | 0.0561 | 0.0689 | 0.0734 | 0.082 | – | 0.0485 | – | 0.0521 | 0.0556 | 0.057 | – | –
